About 120 (0.25%) of roughly 48,000 compounds were called active. Not shown: some 4% with an inconclusive outcome. Calls come from the whole dose curve; as a rule, active = well fitted activation curve with a large enough effect; inconclusive = small, poorly fitted or top-dose-only effect, or another doubt; inactive = no such curve, though single readings can be large or run the other way. The list shows a part of the results, in another mix than the full data. The source gives no active or inactive call for entries shown without one.
Test: Primary qHTS for Identification of Small Molecule Activators of Huntingtin-Antisense Promoter Activity; note: nearly all actives have a fitted effect of over 55% in size
Details: HEK293 HTT-AS promoter firefly luciferase reporter, 24 h; activity change, positive = activation: at 57.5 µM (top of the series), percent change from vehicle, -100% = no light
Summary of the method: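 Luminescence was read after Dual-Glo reagent and a 10 min room-temperature incubation. Values were normalized to vehicle (0% activity) and zero RLU (-100% activity). Reporter HEK293 cells had been exposed to compounds (up to 57.5 uM final) for 24 h.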
Potency is the fitted concentration of half-maximal effect.

Question: For `O=C(CSc1nc(-c2cccc(Cl)c2)nc2cc(=O)[nH]n12)Nc1ccccc1`, which activity change, positive = activation is on record?
Answer: Its activity change, positive = activation is -13.8%.

Question: For `COc1cccc(NC(=O)CSc2nnc(COc3ccc(Cl)cc3)o2)c1`, which activity change, positive = activation is on record?
Answer: The activity change, positive = activation was -5.22%.

Question: With `CCOc1ccccc1NC(=O)c1sc2nc(C)cc(C)c2c1N` as the compound, how does the “activity change, positive = activation” value read?
Answer: Its value is inactive: 3.7%.

Question: With `O=S(=O)(Nc1cccc(-c2ccc(N3CCCCCC3)nn2)c1)c1ccc(F)cc1` as the compound, how does the activity change, positive = activation read?
Answer: The activity change, positive = activation was 42.7%.

Question: For `Cc1cc(C)c(-c2n[nH]c3c2C(c2ccccc2F)N(Cc2ccco2)C3=O)c(O)c1` (stereo unspecified), which “activity change, positive = activation” value is on record?
Answer: Its value is inactive: -32.9%.

Question: For `CCOC(=O)C1CCN(C(=O)Cn2nc(CC)n3c(cc4sccc43)c2=O)CC1`, which “activity change, positive = activation” value is on record?
Answer: Its value is inactive: -78.2%.

Question: Which “activity change, positive = activation” value does the source give for `Cc1nn2c(=O)cc(COC(=O)c3cccc(NC(=O)COc4ccccc4C)c3)nc2s1` here?
Answer: The value was inactive: -89.6%.

Question: Which “activity change, positive = activation” value does the source give for `CCN(CC)C(=O)c1ccc2c(c1)N(Cc1ccc(C(F)(F)F)cc1)C(=O)c1ccccc1S2` here?
Answer: Its value is inactive: -21%.

Question: With `COc1ccc(-c2cc(C(=O)Nc3sc4c(c3C(N)=O)CCCC4)no2)cc1` as the compound, how does the activity change, positive = activation read?
Answer: The activity change, positive = activation was 17.5%.

Question: With `COc1ccc(Cl)cc1NC(=O)c1cc(-c2ccc3c(c2)OCO3)on1` as the compound, how does the activity change, positive = activation read?
Answer: The activity change, positive = activation was 5.23%.

Question: With `Cc1oc2ccc(O)c(CN3CCOCC3)c2c1C(=O)Nc1cccc(C(F)(F)F)c1` as the compound, how does the activity change, positive = activation read?
Answer: The activity change, positive = activation was -28.2%.

Question: Which “activity change, positive = activation” value does the source give for `Cc1[nH]c(C=C2C(=O)Nc3ccc(S(=O)(=O)Cc4c(Cl)cccc4Cl)cc32)c(C)c1C(=O)N1CCC[C@H]1CN1CCCC1` here?
Answer: The value was inactive: -4.46%.

Question: For `O=C(Nc1ccccc1C(F)(F)F)C1CCN(S(=O)(=O)Cc2ccccc2)CC1`, which activity change, positive = activation is on record?
Answer: Its activity change, positive = activation is 2.69%.

Question: With `Cc1nc(NC(=O)N2CCC[C@@H]2C(N)=O)sc1-c1csc(C(C)(C)C)n1` as the compound, how does the “activity change, positive = activation” value read?
Answer: The value was inactive: 10.2%.

Question: For `COc1cc(NC(=O)CC2C(=O)N(c3cccc(C)c3)C(=O)N2Cc2ccco2)cc(OC)c1` (stereo unspecified), which activity change, positive = activation is on record?
Answer: Its activity change, positive = activation is -21.1%.

Question: For `COC(=O)CN1C(=O)CSc2ccc(S(=O)(=O)Nc3ccc(Cl)cc3C)cc21`, which activity change, positive = activation is on record?
Answer: Its activity change, positive = activation is -8.19%.

Question: With `Cc1ccc2ccc(C(Nc3ccccn3)c3ccccc3)c(O)c2n1` (stereo unspecified) as the compound, how does the activity change, positive = activation read?
Answer: Its activity change, positive = activation is -7.27%.

Question: With `Cc1cccc(CNC(=O)c2cnc3sc(N4CCCCC4)nn3c2=O)c1` as the compound, how does the activity change, positive = activation read?
Answer: Its activity change, positive = activation is -2.95%.

Question: With `Cc1nc2c(-c3ccccc3)c(C)nn2c(C)c1CCC(=O)NCc1cccc(Cl)c1` as the compound, how does the “activity change, positive = activation” value read?
Answer: Its value is inactive: -21.7%.

Question: Which “activity change, positive = activation” value does the source give for `Cc1cc(C)cc(Oc2nc3c(C)cccn3c(=O)c2/C=C(\C#N)c2nc3ccccc3[nH]2)c1` here?
Answer: The value was inactive: -3.97%.

Question: For `COc1ccc(NC(=O)c2oc3ccccc3c2NC(=O)c2cccc(F)c2)c(OC)c1`, which “activity change, positive = activation” value is on record?
Answer: The value was inactive: -12.3%.

Question: For `C=CCc1ccccc1OCCSc1nc(-c2ccc(C(C)(C)C)cc2)nc2cc(=O)[nH]n12`, which activity change, positive = activation is on record?
Answer: The activity change, positive = activation was 5.6%.

Question: Which activity change, positive = activation does the source give for `CCc1nn(-c2ccccc2)c2nc(-c3cccc(OC)c3)c3cc(OC)c(OC)cc3c12` here?
Answer: The activity change, positive = activation was -0.363%.

Question: With `CCCc1cc(=O)[nH]c(Nc2cccc(Cl)c2Cl)n1` as the compound, how does the activity change, positive = activation read?
Answer: The activity change, positive = activation was -10.8%.

Question: With `COc1ccc2c(C)c(CCC(=O)NCCc3ccccc3OC)c(=O)oc2c1` as the compound, how does the activity change, positive = activation read?
Answer: The activity change, positive = activation was -9.52%.

Question: For `CCOc1cc(C2C(C(=O)OC)=C(C)NC3=C2C(=O)c2ccccc23)cc(Cl)c1O` (stereo unspecified), which activity change, positive = activation is on record?
Answer: The activity change, positive = activation was -9.14%.

Question: With `COc1ccc(NC(=O)CN(Cc2ccccc2)S(=O)(=O)c2ccc(C)cc2)cc1Cl` as the compound, how does the activity change, positive = activation read?
Answer: The activity change, positive = activation was -40.4%.

Question: For `COc1ccc(NC(=O)CC2C(=O)N(c3ccc(F)cc3)C(=O)N2Cc2cccnc2)cc1` (stereo unspecified), which activity change, positive = activation is on record?
Answer: Its activity change, positive = activation is 5.6%.

Question: With `COc1ccc(CCN2C(=O)CN(C3CCCCCC3)C(=O)C2c2ccc(OC(C)C)c(OC)c2)cc1OC` (stereo unspecified) as the compound, how does the activity change, positive = activation read?
Answer: The activity change, positive = activation was -4.99%.

Question: Which Potency does the source give for `COc1cccc(-c2cn3ncsc3n2)c1` here?
Answer: Its Potency is active: 2.51 µM.

Question: Which activity change, positive = activation does the source give for `CCCOc1ccc(C2C(=O)N(C3CCC(C)CC3)CC(=O)N2Cc2cccc(OC)c2)cc1OC` (stereo unspecified) here?
Answer: Its activity change, positive = activation is -2.32%.

Question: Which “activity change, positive = activation” value does the source give for `Cc1cc(CN2CCN(c3c(Br)cnc4nc(-c5ccc(N6CCN(C)CC6)cc5)[nH]c34)CC2)no1` here?
Answer: The value was inactive: -19.2%.

Question: With `COCCCNC(=O)c1ccc(-c2nc(CS(=O)(=O)c3ccc(C)cc3)c(C)o2)cc1` as the compound, how does the activity change, positive = activation read?
Answer: The activity change, positive = activation was -29.1%.

Question: Which activity change, positive = activation does the source give for `COc1ccc(NC(=O)CCc2c(C)nn(-c3ccc(N4CCCCC4)nn3)c2C)cc1Cl` here?
Answer: Its activity change, positive = activation is 27.8%.

Question: Which activity change, positive = activation does the source give for `Cc1ccc(CNC(=O)c2cc3c(=O)n(Cc4ccco4)ccc3nc2C)cc1` here?
Answer: Its activity change, positive = activation is -26.5%.

Question: Which activity change, positive = activation does the source give for `CCOc1ccc(NC(=O)CCc2c(C)nn(-c3ccc(N4CCCC4)nn3)c2C)cc1` here?
Answer: Its activity change, positive = activation is 14.8%.

Question: For `CC(=O)c1ccc(N2CCN(S(=O)(=O)c3ccc(-c4coc(C)n4)cc3)CC2)cc1`, which “activity change, positive = activation” value is on record?
Answer: The value was inactive: -29.1%.

Question: With `CCc1nn(CC(=O)NCCc2ccc(Cl)cc2)c(=O)c2cc3c(OC)cccc3n12` as the compound, how does the activity change, positive = activation read?
Answer: The activity change, positive = activation was -3.05%.

Question: For `COc1ccc(-c2cc(C(=O)Nc3ccc4c(c3)OCO4)no2)cc1`, which activity change, positive = activation is on record?
Answer: The activity change, positive = activation was 0.148%.

Question: For `COc1ccc(Br)cc1CNC(=O)Cn1nc(C)n2c(cc3cc(F)ccc32)c1=O`, which activity change, positive = activation is on record?
Answer: Its activity change, positive = activation is 3.24%.

Question: For `COc1ccc(-c2cc(C(=O)Nc3cc(C(F)(F)F)ccc3Cl)no2)cc1`, which activity change, positive = activation is on record?
Answer: Its activity change, positive = activation is -11.5%.

Question: For `CCN(C(=O)c1ccc(C(=O)N(CC)c2ccccc2C)cc1)c1ccccc1C`, which activity change, positive = activation is on record?
Answer: The activity change, positive = activation was -22.9%.

Question: Which activity change, positive = activation does the source give for `CCOc1ccccc1CNC(=O)c1cnn(-c2ccc(C)cc2)c1-n1cccc1` here?
Answer: The activity change, positive = activation was -40.9%.

Question: With `CCc1ccc(NC(=O)CCc2c(C)nn(-c3ccc(N4CCCC4)nn3)c2C)cc1` as the compound, how does the activity change, positive = activation read?
Answer: Its activity change, positive = activation is 19.4%.

Question: Which activity change, positive = activation does the source give for `COc1ccc(C2C(=O)N(C3CCCCCC3)CC(=O)N2CCc2ccc(Cl)cc2)cc1OC` (stereo unspecified) here?
Answer: Its activity change, positive = activation is -14.7%.

Question: For `Cc1ccc(NC2(c3ccccc3)C(=O)c3ccccc3C2=O)cc1F`, which activity change, positive = activation is on record?
Answer: The activity change, positive = activation was -8.58%.

Question: With `Cc1ccc2c(=O)c(C(=O)c3ccccc3)cn(CC(=O)NCc3ccccc3)c2n1` as the compound, how does the “activity change, positive = activation” value read?
Answer: The value was inactive: -12%.

Question: For `CCOc1ccc(C2C(=O)N(C3CCCCC3)CC(=O)N2Cc2ccc(F)cc2)cc1OC` (stereo unspecified), which activity change, positive = activation is on record?
Answer: The activity change, positive = activation was -18.5%.

Question: For `COc1cc(C(=O)Nc2ccc3nc4n(c(=O)c3c2)CCCCC4)cc(OC)c1OC`, which “activity change, positive = activation” value is on record?
Answer: The value was inactive: -11.1%.

Question: For `CCOC(=O)c1c(NC(=O)c2cc(CC)on2)sc(C)c1C`, which activity change, positive = activation is on record?
Answer: The activity change, positive = activation was 5.77%.

Question: For `COc1cc(OC)c(Nc2nc3ccc(C)cc3n3nnnc23)cc1Cl`, which activity change, positive = activation is on record?
Answer: The activity change, positive = activation was 5.59%.

Question: For `COC(=O)c1cc2oc3ccccc3c2n1Cc1cccc(C)c1`, which activity change, positive = activation is on record?
Answer: The activity change, positive = activation was 3.1%.

Question: With `COC(=O)c1cccc(NC(=O)C2CCN(S(=O)(=O)Cc3ccccc3)CC2)c1C` as the compound, how does the activity change, positive = activation read?
Answer: The activity change, positive = activation was 3.46%.

Question: Which activity change, positive = activation does the source give for `Fc1ccccc1C(NCCc1ccc(Cl)cc1)c1nnc(-c2ccccc2)o1` (stereo unspecified) here?
Answer: The activity change, positive = activation was -26%.

Question: With `OCCN(CCO)c1nc(N2CCCCC2)c2nc(N(CCO)CCO)nc(N3CCCCC3)c2n1` as the compound, how does the Potency read?
Answer: The Potency was “inactive”.

Question: With `CN(C)S(=O)(=O)N1CCC(N2CCN(Cc3ccc(F)cc3)C(=O)C2=O)CC1` as the compound, how does the activity change, positive = activation read?
Answer: The activity change, positive = activation was 5.88%.

Question: For `Nc1nonc1-c1nc2ccccc2n1CC(=O)Nc1ccccc1C(=O)O`, which activity change, positive = activation is on record?
Answer: Its activity change, positive = activation is -29.7%.

Question: Which “activity change, positive = activation” value does the source give for `CC(=O)Nc1ccc(NCc2nnc3n2CCCCC3)cc1` here?
Answer: The value was inactive: -12.5%.

Question: Which activity change, positive = activation does the source give for `CCc1ccc(-n2c(CCC(=O)O)ccc2-c2cccs2)cc1` here?
Answer: Its activity change, positive = activation is -7.95%.

Question: With `COc1cccc(OCCn2c(-c3ccc(Br)cc3)nc3ccccc3c2=O)c1` as the compound, how does the activity change, positive = activation read?
Answer: The activity change, positive = activation was 2.33%.

Question: Which activity change, positive = activation does the source give for `COC(=O)c1ccc(NC(=O)CCc2c(C)nn(-c3ccc(N4CCCCC4)nn3)c2C)cc1` here?
Answer: The activity change, positive = activation was 40.4%.
